# Publication PMC12820563, “FoxP3 forms a head-to-head dimer in vivo and stabilizes its multimerization on adjacent microsatellites”
# Some of the results follow.
# Molecular target: T1, MBP-FoxP1dN (Mus musculus, UniProt P58462 326-579)
# T1 sequence: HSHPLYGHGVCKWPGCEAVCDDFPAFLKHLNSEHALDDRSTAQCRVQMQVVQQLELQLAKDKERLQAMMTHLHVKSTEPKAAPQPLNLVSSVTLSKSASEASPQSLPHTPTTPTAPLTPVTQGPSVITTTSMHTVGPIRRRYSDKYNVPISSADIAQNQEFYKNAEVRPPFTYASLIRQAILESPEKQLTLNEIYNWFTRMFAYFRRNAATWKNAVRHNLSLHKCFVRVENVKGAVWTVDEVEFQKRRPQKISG
# Assay: PD-seq (MBP pull-down with sequencing); 20 mM Tris-HCl pH 7.5, 100 mM NaCl, 1.5 mM MgCl2, 0.4 uM protein, 0.1 uM dsDNA library, 30 min, room temperature, amylose pull-down; high values mean tight binding
# Conditions: protein: recombinant; tags: His6-MBP; chain copies: 2; dsDNA, one strand shown
# Method in brief: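 Binding is given as reads-per-million enrichment, pull-down over input, with replicates pooled. The bait was an N-terminus-lacking mouse FoxP3 or FoxP1 fragment with a His6-MBP tag, expressed in E. coli and used at 0.4 µM with 0.1 µM Klenow-filled degenerate double-stranded DNA library for 30 min at room temperature in Tris pH 7.5 buffer with NaCl and MgCl2. Amylose resin pull-down with three washes was followed by proteinase K release, PCR barcoding and Illumina sequencing.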
row,Sequence,binding signal
1,GATGATTGTTCTCCCAGCTGATGAATTATATTTTTCGAGTAAACAAATTTTCCTAATCTTTCTGTTCAAGCGCCATCTAC,1.61 RPM ratio (pull-down/input)
2,GATGATTGTTCTCCCAGCTGATGAATTCAGTAAGTCGAGTAAACAAATTTTCCTAATCTTTCTGTTCAAGCGCCATCTAC,0.921 RPM ratio (pull-down/input)
3,GATGATTGTTCTCCCAGCTGATGAATTGCCGGAATCGAGTAAACAAATTTTCCTAATCTTTCTGTTCAAGCGCCATCTAC,0.95 RPM ratio (pull-down/input)
4,GATGATTGTTCTCCCAGCTGATGAATTTATCGCATCGAGTAAACAAATTTTCCTAATCTTTCTGTTCAAGCGCCATCTAC,1.46 RPM ratio (pull-down/input)
5,GATGATTGTTCTCCCAGCTGATGAATTCCCGGACTCGAGTAAACAAATTTTCCTAATCTTTCTGTTCAAGCGCCATCTAC,0.762 RPM ratio (pull-down/input)
6,GATGATTGTTCTCCCAGCTGATGAATTGCCAGCCTCGAGTAAACAAATTTTCCTAATCTTTCTGTTCAAGCGCCATCTAC,0.923 RPM ratio (pull-down/input)
7,GATGATTGTTCTCCCAGCTGATGAATTACGTTTATCGAGTAAACAAATTTTCCTAATCTTTCTGTTCAAGCGCCATCTAC,1.43 RPM ratio (pull-down/input)
8,GATGATTGTTCTCCCAGCTGATGAATTTTGCGGGTCGAGTAAACAAATTTTCCTAATCTTTCTGTTCAAGCGCCATCTAC,0.843 RPM ratio (pull-down/input)
9,GATGATTGTTCTCCCAGCTGATGAATTGCACGTATCGAGTAAACAAATTTTCCTAATCTTTCTGTTCAAGCGCCATCTAC,1.19 RPM ratio (pull-down/input)
10,GATGATTGTTCTCCCAGCTGATGAATTTTCGTTGTCGAGTAAACAAATTTTCCTAATCTTTCTGTTCAAGCGCCATCTAC,1.34 RPM ratio (pull-down/input)
11,GATGATTGTTCTCCCAGCTGATGAATTGATAAAGTCGAGTAAACAAATTTTCCTAATCTTTCTGTTCAAGCGCCATCTAC,1.04 RPM ratio (pull-down/input)
12,GATGATTGTTCTCCCAGCTGATGAATTCCTCCCCTCGAGTAAACAAATTTTCCTAATCTTTCTGTTCAAGCGCCATCTAC,0.804 RPM ratio (pull-down/input)
13,GATGATTGTTCTCCCAGCTGATGAATTCAGGTTGTCGAGTAAACAAATTTTCCTAATCTTTCTGTTCAAGCGCCATCTAC,1 RPM ratio (pull-down/input)
14,GATGATTGTTCTCCCAGCTGATGAATTCTCTCTTTCGAGTAAACAAATTTTCCTAATCTTTCTGTTCAAGCGCCATCTAC,0.917 RPM ratio (pull-down/input)
15,GATGATTGTTCTCCCAGCTGATGAATTTCCATGATCGAGTAAACAAATTTTCCTAATCTTTCTGTTCAAGCGCCATCTAC,0.854 RPM ratio (pull-down/input)
16,GATGATTGTTCTCCCAGCTGATGAATTGCAGATATCGAGTAAACAAATTTTCCTAATCTTTCTGTTCAAGCGCCATCTAC,1.23 RPM ratio (pull-down/input)
17,GATGATTGTTCTCCCAGCTGATGAATTGGCAGGGTCGAGTAAACAAATTTTCCTAATCTTTCTGTTCAAGCGCCATCTAC,0.733 RPM ratio (pull-down/input)
18,GATGATTGTTCTCCCAGCTGATGAATTTAAAACTTCGAGTAAACAAATTTTCCTAATCTTTCTGTTCAAGCGCCATCTAC,0.825 RPM ratio (pull-down/input)
19,GATGATTGTTCTCCCAGCTGATGAATTTGTGCGCTCGAGTAAACAAATTTTCCTAATCTTTCTGTTCAAGCGCCATCTAC,1.04 RPM ratio (pull-down/input)
20,GATGATTGTTCTCCCAGCTGATGAATTAACACACTCGAGTAAACAAATTTTCCTAATCTTTCTGTTCAAGCGCCATCTAC,1.2 RPM ratio (pull-down/input)
21,GATGATTGTTCTCCCAGCTGATGAATTCAAAACCTCGAGTAAACAAATTTTCCTAATCTTTCTGTTCAAGCGCCATCTAC,0.864 RPM ratio (pull-down/input)

row,Sequence,binding signal
1,GATGATTGTTCTCCCAGCTGATGAATTTCTCGGCTCGAGTAAACAAATTTTCCTAATCTTTCTGTTCAAGCGCCATCTAC,0.734 RPM ratio (pull-down/input)
2,GATGATTGTTCTCCCAGCTGATGAATTTGGGCAATCGAGTAAACAAATTTTCCTAATCTTTCTGTTCAAGCGCCATCTAC,1.02 RPM ratio (pull-down/input)
3,GATGATTGTTCTCCCAGCTGATGAATTAACAGCATCGAGTAAACAAATTTTCCTAATCTTTCTGTTCAAGCGCCATCTAC,1.26 RPM ratio (pull-down/input)
4,GATGATTGTTCTCCCAGCTGATGAATTACGATGGTCGAGTAAACAAATTTTCCTAATCTTTCTGTTCAAGCGCCATCTAC,0.966 RPM ratio (pull-down/input)
5,GATGATTGTTCTCCCAGCTGATGAATTCATTGGGTCGAGTAAACAAATTTTCCTAATCTTTCTGTTCAAGCGCCATCTAC,0.77 RPM ratio (pull-down/input)
6,GATGATTGTTCTCCCAGCTGATGAATTAGTGACTTCGAGTAAACAAATTTTCCTAATCTTTCTGTTCAAGCGCCATCTAC,0.962 RPM ratio (pull-down/input)
7,GATGATTGTTCTCCCAGCTGATGAATTTCAGCCCTCGAGTAAACAAATTTTCCTAATCTTTCTGTTCAAGCGCCATCTAC,0.731 RPM ratio (pull-down/input)
8,GATGATTGTTCTCCCAGCTGATGAATTACGCCCTTCGAGTAAACAAATTTTCCTAATCTTTCTGTTCAAGCGCCATCTAC,0.952 RPM ratio (pull-down/input)
9,GATGATTGTTCTCCCAGCTGATGAATTGTTTTGTTCGAGTAAACAAATTTTCCTAATCTTTCTGTTCAAGCGCCATCTAC,1.97 RPM ratio (pull-down/input)
10,GATGATTGTTCTCCCAGCTGATGAATTATTGTTCTCGAGTAAACAAATTTTCCTAATCTTTCTGTTCAAGCGCCATCTAC,1.71 RPM ratio (pull-down/input)
11,GATGATTGTTCTCCCAGCTGATGAATTTCCGTGATCGAGTAAACAAATTTTCCTAATCTTTCTGTTCAAGCGCCATCTAC,0.841 RPM ratio (pull-down/input)
12,GATGATTGTTCTCCCAGCTGATGAATTGGTGAAGTCGAGTAAACAAATTTTCCTAATCTTTCTGTTCAAGCGCCATCTAC,0.924 RPM ratio (pull-down/input)
13,GATGATTGTTCTCCCAGCTGATGAATTCCTGCAGTCGAGTAAACAAATTTTCCTAATCTTTCTGTTCAAGCGCCATCTAC,0.788 RPM ratio (pull-down/input)
14,GATGATTGTTCTCCCAGCTGATGAATTGGTAACGTCGAGTAAACAAATTTTCCTAATCTTTCTGTTCAAGCGCCATCTAC,0.964 RPM ratio (pull-down/input)
15,GATGATTGTTCTCCCAGCTGATGAATTCCACTCTTCGAGTAAACAAATTTTCCTAATCTTTCTGTTCAAGCGCCATCTAC,0.826 RPM ratio (pull-down/input)
16,GATGATTGTTCTCCCAGCTGATGAATTATATAGTTCGAGTAAACAAATTTTCCTAATCTTTCTGTTCAAGCGCCATCTAC,1.04 RPM ratio (pull-down/input)
17,GATGATTGTTCTCCCAGCTGATGAATTGGGTTCCTCGAGTAAACAAATTTTCCTAATCTTTCTGTTCAAGCGCCATCTAC,0.828 RPM ratio (pull-down/input)
18,GATGATTGTTCTCCCAGCTGATGAATTACTACAATCGAGTAAACAAATTTTCCTAATCTTTCTGTTCAAGCGCCATCTAC,1.55 RPM ratio (pull-down/input)
19,GATGATTGTTCTCCCAGCTGATGAATTCCAAGTATCGAGTAAACAAATTTTCCTAATCTTTCTGTTCAAGCGCCATCTAC,0.949 RPM ratio (pull-down/input)
20,GATGATTGTTCTCCCAGCTGATGAATTATACAAATCGAGTAAACAAATTTTCCTAATCTTTCTGTTCAAGCGCCATCTAC,1.55 RPM ratio (pull-down/input)
21,GATGATTGTTCTCCCAGCTGATGAATTGGGCTCGTCGAGTAAACAAATTTTCCTAATCTTTCTGTTCAAGCGCCATCTAC,0.852 RPM ratio (pull-down/input)

row,Sequence,binding signal
1,GATGATTGTTCTCCCAGCTGATGAATTTTTTCCGTCGAGTAAACAAATTTTCCTAATCTTTCTGTTCAAGCGCCATCTAC,0.946 RPM ratio (pull-down/input)
2,GATGATTGTTCTCCCAGCTGATGAATTCCAACATTCGAGTAAACAAATTTTCCTAATCTTTCTGTTCAAGCGCCATCTAC,0.961 RPM ratio (pull-down/input)
3,GATGATTGTTCTCCCAGCTGATGAATTTGAGGTGTCGAGTAAACAAATTTTCCTAATCTTTCTGTTCAAGCGCCATCTAC,0.817 RPM ratio (pull-down/input)
4,GATGATTGTTCTCCCAGCTGATGAATTAATCTGGTCGAGTAAACAAATTTTCCTAATCTTTCTGTTCAAGCGCCATCTAC,0.789 RPM ratio (pull-down/input)
5,GATGATTGTTCTCCCAGCTGATGAATTGTGTCTCTCGAGTAAACAAATTTTCCTAATCTTTCTGTTCAAGCGCCATCTAC,1.1 RPM ratio (pull-down/input)
6,GATGATTGTTCTCCCAGCTGATGAATTCGATAGTTCGAGTAAACAAATTTTCCTAATCTTTCTGTTCAAGCGCCATCTAC,0.89 RPM ratio (pull-down/input)
7,GATGATTGTTCTCCCAGCTGATGAATTCTAGCGCTCGAGTAAACAAATTTTCCTAATCTTTCTGTTCAAGCGCCATCTAC,0.816 RPM ratio (pull-down/input)
8,GATGATTGTTCTCCCAGCTGATGAATTCGTGGTGTCGAGTAAACAAATTTTCCTAATCTTTCTGTTCAAGCGCCATCTAC,0.882 RPM ratio (pull-down/input)
9,GATGATTGTTCTCCCAGCTGATGAATTGAAACAGTCGAGTAAACAAATTTTCCTAATCTTTCTGTTCAAGCGCCATCTAC,0.971 RPM ratio (pull-down/input)
10,GATGATTGTTCTCCCAGCTGATGAATTGCGTAGGTCGAGTAAACAAATTTTCCTAATCTTTCTGTTCAAGCGCCATCTAC,0.97 RPM ratio (pull-down/input)
11,GATGATTGTTCTCCCAGCTGATGAATTTTCAATTTCGAGTAAACAAATTTTCCTAATCTTTCTGTTCAAGCGCCATCTAC,0.889 RPM ratio (pull-down/input)
12,GATGATTGTTCTCCCAGCTGATGAATTTAAGGGATCGAGTAAACAAATTTTCCTAATCTTTCTGTTCAAGCGCCATCTAC,0.794 RPM ratio (pull-down/input)
13,GATGATTGTTCTCCCAGCTGATGAATTCGGGGTATCGAGTAAACAAATTTTCCTAATCTTTCTGTTCAAGCGCCATCTAC,0.904 RPM ratio (pull-down/input)
14,GATGATTGTTCTCCCAGCTGATGAATTATGTTGTTCGAGTAAACAAATTTTCCTAATCTTTCTGTTCAAGCGCCATCTAC,2.67 RPM ratio (pull-down/input)
15,GATGATTGTTCTCCCAGCTGATGAATTGATTCAGTCGAGTAAACAAATTTTCCTAATCTTTCTGTTCAAGCGCCATCTAC,0.922 RPM ratio (pull-down/input)
16,GATGATTGTTCTCCCAGCTGATGAATTAACCCCCTCGAGTAAACAAATTTTCCTAATCTTTCTGTTCAAGCGCCATCTAC,0.867 RPM ratio (pull-down/input)
17,GATGATTGTTCTCCCAGCTGATGAATTCCTTGCATCGAGTAAACAAATTTTCCTAATCTTTCTGTTCAAGCGCCATCTAC,1.12 RPM ratio (pull-down/input)
18,GATGATTGTTCTCCCAGCTGATGAATTTAGAATATCGAGTAAACAAATTTTCCTAATCTTTCTGTTCAAGCGCCATCTAC,1.08 RPM ratio (pull-down/input)
19,GATGATTGTTCTCCCAGCTGATGAATTGGCCGACTCGAGTAAACAAATTTTCCTAATCTTTCTGTTCAAGCGCCATCTAC,0.77 RPM ratio (pull-down/input)
20,GATGATTGTTCTCCCAGCTGATGAATTCTATGTCTCGAGTAAACAAATTTTCCTAATCTTTCTGTTCAAGCGCCATCTAC,0.922 RPM ratio (pull-down/input)
21,GATGATTGTTCTCCCAGCTGATGAATTGTCCCGATCGAGTAAACAAATTTTCCTAATCTTTCTGTTCAAGCGCCATCTAC,0.937 RPM ratio (pull-down/input)
